# Test results as given in a collection of fitness landscapes (doi:10.1016/j.celrep.2020.107928).
# In all, about 81,000 sequences were measured (“one-hybrid fitness for binding NBS DNA”: median about -0.1, highest 2% from about 0.36 on). The list shows a part of the results.
# B1: Caulobacter ParB omega fusion; a variant is named by its letters at X, in order, B8GW30 (parent)
# chain: MESVVVGEPGMSEGRRGLGRGLSALLGEVDAAPAQAPGEQLGGSREAPIEILQRNPDQPRRTFREEDLEDLSNSIREKGVLQPILVRPSPDTAGEYQIVAGERAWRAAQRAGLKTVPIMVRELDDLAVLEIGIIENVQRADLNVLEEALSYKVLMEKFERTQENIAQTIGKSXSHVANXMRLLXLPDEVQSYLVSGELTAXHARAIAAAADPVALAKQIIEGGLSVRETEALARKAPNLSAGKSKGGRPPRVKDTDTQALESDLSSVLGLDVSIDHRGSTGTLTITYATLEQLDDLCNRLTRGI
# Variants of: B1
# Assay: one-hybrid fitness for binding NBS DNA (the Noc-binding site; scaled: cognate 1, non-cognate 0); higher = stronger binding
# Conditions: with NBS DNA site
# Method in brief: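 Bacterial one-hybrid selection in E. coli USO rpoZ- hisB- pyrF- with a HIS3 reporter carrying the site 19 bp from the promoter, screening Caulobacter ParB libraries with four specificity codons randomised (NNS). Cells grew 48 hours at 37°C on M9-minus-histidine plus 0.1 mM IPTG and 5 mM 3-AT. Plasmids before and after selection were Illumina-sequenced, three replicate libraries pooled, and variants under 10 reads dropped. Fitness is the log change in variant-to-wild-type read ratio, rescaled to cognate 1, non-cognate 0.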
row,Variant,one-hybrid fitness for binding NBS DNA
1,VARC,≤ 0.2
2,GSAR,≤ 0.2
3,ITKH,≤ 0.2
4,ILYI,≤ 0.2
5,QIRN,0.226
6,LDHM,≤ 0.2
7,HDMF,≤ 0.2
8,TIFF,≤ 0.2
9,CQRL,≤ 0.2
10,AQLS,≤ 0.2
11,APKK,≤ 0.2
12,VTKG,≤ 0.2
13,PSDL,≤ 0.2
14,QVYL,≤ 0.2
15,QRNL,0.3
16,CTTV,≤ 0.2
17,DLTG,≤ 0.2
18,PYFL,≤ 0.2
19,PIWR,≤ 0.2
20,EVRR,≤ 0.2
21,QTYH,0.271
22,HSLV,≤ 0.2
23,LKLE,≤ 0.2
24,APYL,≤ 0.2

row,Variant,one-hybrid fitness for binding NBS DNA
1,SWYC,≤ 0.2
2,MSPF,≤ 0.2
3,QFDW,≤ 0.2
4,YIGG,≤ 0.2
5,FHLK,≤ 0.2
6,AQVR,≤ 0.2
7,VIIA,≤ 0.2
8,WMQS,≤ 0.2
9,YMES,≤ 0.2
10,SDCG,≤ 0.2
11,AHDV,≤ 0.2
12,GSHC,≤ 0.2
13,AATI,≤ 0.2
14,IAIL,≤ 0.2
15,TCVD,≤ 0.2
16,VYLT,≤ 0.2
17,SVML,≤ 0.2
18,LMQK,≤ 0.2
19,QAPE,≤ 0.2
20,LVST,≤ 0.2
21,MKNG,≤ 0.2
22,VLHM,≤ 0.2
23,CCST,≤ 0.2
24,QLML,≤ 0.2

row,Variant,one-hybrid fitness for binding NBS DNA
1,FQPT,≤ 0.2
2,SHPE,≤ 0.2
3,DCDG,≤ 0.2
4,MGKV,≤ 0.2
5,ATMC,≤ 0.2
6,QESD,≤ 0.2
7,YIPI,≤ 0.2
8,PQYM,≤ 0.2
9,HCPG,≤ 0.2
10,IFMT,≤ 0.2
11,QFRA,≤ 0.2
12,QVCT,0.314
13,TMFD,≤ 0.2
14,LCWS,≤ 0.2
15,KHDR,≤ 0.2
16,QMCV,≤ 0.2
17,EYTR,≤ 0.2
18,KAHT,≤ 0.2
19,QSAP,≤ 0.2
20,TPYF,≤ 0.2
21,VVVC,≤ 0.2
22,SSKW,≤ 0.2
23,EGHF,≤ 0.2
24,HMRY,≤ 0.2

row,Variant,one-hybrid fitness for binding NBS DNA
1,QSAD,≤ 0.2
2,HTPP,≤ 0.2
3,WLER,≤ 0.2
4,RLCP,≤ 0.2
5,PGDG,≤ 0.2
6,DLPM,≤ 0.2
7,RDTI,≤ 0.2
8,KCVS,≤ 0.2
9,SHNR,≤ 0.2
10,RYQI,≤ 0.2
11,LKKR,0.224
12,PPLN,≤ 0.2
13,CSLR,≤ 0.2
14,RKHE,≤ 0.2
15,VYNT,≤ 0.2
16,CPFV,≤ 0.2
17,MVEV,≤ 0.2
18,GLSY,≤ 0.2
19,LAQE,≤ 0.2
20,NCRM,≤ 0.2
21,TCYM,≤ 0.2
22,EHPE,≤ 0.2
23,GLNE,≤ 0.2
24,FLPG,≤ 0.2

row,Variant,one-hybrid fitness for binding NBS DNA
1,NAFC,≤ 0.2
2,AATR,≤ 0.2
3,CSFI,≤ 0.2
4,GQEG,≤ 0.2
5,RDGV,≤ 0.2
6,QCQM,≤ 0.2
7,QLVH,≤ 0.2
8,FQLC,≤ 0.2
9,LEPS,≤ 0.2
10,TPTT,≤ 0.2
11,WMVS,≤ 0.2
12,TYNK,≤ 0.2
13,DAPQ,≤ 0.2
14,EWNR,≤ 0.2
15,IILG,≤ 0.2
16,YSYG,≤ 0.2
17,ARRY,≤ 0.2
18,EHVT,≤ 0.2
19,PYVV,≤ 0.2
20,LCIT,≤ 0.2
21,TIPE,≤ 0.2
22,SNVN,≤ 0.2
23,IGLC,≤ 0.2
24,YNLR,≤ 0.2

row,Variant,one-hybrid fitness for binding NBS DNA
1,MQDT,≤ 0.2
2,LESR,≤ 0.2
3,KVLV,≤ 0.2
4,RKEG,≤ 0.2
5,RRTE,≤ 0.2
6,TVSS,≤ 0.2
7,QSNA,0.308
8,TCSW,≤ 0.2
9,RCSA,0.232
10,ENKR,≤ 0.2
11,CHKG,≤ 0.2
12,LARE,≤ 0.2
13,GRPG,≤ 0.2
14,HQDT,≤ 0.2
15,KKLT,≤ 0.2
16,RDDW,≤ 0.2
17,HRRD,≤ 0.2
18,HWTS,≤ 0.2
19,MLAS,≤ 0.2
20,NYLC,≤ 0.2
21,GESC,≤ 0.2
22,ARFS,≤ 0.2
23,NYIC,≤ 0.2
24,QARW,0.252

row,Variant,one-hybrid fitness for binding NBS DNA
1,CHLA,≤ 0.2
2,DCLF,≤ 0.2
3,MFRW,≤ 0.2
4,PEDG,≤ 0.2
5,SSFG,≤ 0.2
6,IRAL,≤ 0.2
7,QSGP,≤ 0.2
8,LYPF,≤ 0.2
9,FGVL,≤ 0.2
10,GHRH,≤ 0.2
11,QNCE,≤ 0.2
12,SPGE,≤ 0.2
13,PNRF,≤ 0.2
14,PVNR,≤ 0.2
15,MITS,≤ 0.2
16,GEQS,≤ 0.2
17,QLGW,≤ 0.2
18,PAQF,≤ 0.2
19,DFND,≤ 0.2
20,KPTG,≤ 0.2
21,ILAT,≤ 0.2
22,SLIA,≤ 0.2
23,HDCS,≤ 0.2
24,DADV,≤ 0.2

row,Variant,one-hybrid fitness for binding NBS DNA
1,KQST,≤ 0.2
2,IHRG,≤ 0.2
3,DEWG,≤ 0.2
4,YSVY,≤ 0.2
5,QLPQ,≤ 0.2
6,MFWL,≤ 0.2
7,KVPS,≤ 0.2
8,CMRD,≤ 0.2
9,DLAT,≤ 0.2
10,PNMW,≤ 0.2
11,QRGG,0.367
12,KFMC,≤ 0.2
13,CMNV,≤ 0.2
14,TPEA,≤ 0.2
15,AKWS,≤ 0.2
16,WSAQ,≤ 0.2
17,WAIS,≤ 0.2
18,QAMC,≤ 0.2
19,YSDS,≤ 0.2
20,LHTK,≤ 0.2
21,YGKL,≤ 0.2
22,ICLR,≤ 0.2
23,RPDP,≤ 0.2
24,TATK,≤ 0.2

row,Variant,one-hybrid fitness for binding NBS DNA
1,LPMT,≤ 0.2
2,SCGT,≤ 0.2
3,VLFG,≤ 0.2
4,MELS,≤ 0.2
5,THLV,≤ 0.2
6,WAMT,≤ 0.2
7,KMDT,≤ 0.2
8,AHSD,≤ 0.2
9,QCWA,0.205
10,KSCR,≤ 0.2
11,WSLV,≤ 0.2
12,DVND,≤ 0.2
13,ASHY,≤ 0.2
14,QANS,0.392
15,NRGM,≤ 0.2
16,NTFS,≤ 0.2
17,YLTI,≤ 0.2
18,RFCV,≤ 0.2
19,SYKR,0.378
20,SNHC,≤ 0.2
21,LGTE,≤ 0.2
22,MRAF,≤ 0.2
23,GDVA,≤ 0.2
24,TGER,≤ 0.2

row,Variant,one-hybrid fitness for binding NBS DNA
1,QCPQ,≤ 0.2
2,KRVC,≤ 0.2
3,IFQG,≤ 0.2
4,VCWG,≤ 0.2
5,ILHS,≤ 0.2
6,YKEC,≤ 0.2
7,MTES,≤ 0.2
8,RPNA,≤ 0.2
9,SSGG,≤ 0.2
10,KWDS,≤ 0.2
11,KVSC,≤ 0.2
12,VFPY,≤ 0.2
13,PFQF,≤ 0.2
14,KTGG,≤ 0.2
15,STQL,≤ 0.2
16,PCSI,≤ 0.2
17,VHYL,≤ 0.2
18,YPWS,≤ 0.2
19,GFQK,≤ 0.2
20,YYAC,≤ 0.2
21,ENAC,≤ 0.2
22,SHNY,≤ 0.2
23,PNMR,≤ 0.2
24,LYFC,≤ 0.2

row,Variant,one-hybrid fitness for binding NBS DNA
1,KGKC,≤ 0.2
2,MCVS,≤ 0.2
3,HCLS,≤ 0.2
4,AMQD,≤ 0.2
5,QLNF,≤ 0.2
6,KSVY,≤ 0.2
7,TIAA,≤ 0.2
8,WSKA,≤ 0.2
9,SLVA,≤ 0.2
10,MVQP,≤ 0.2
11,QAHN,≤ 0.2
12,IRLM,≤ 0.2
13,TCLM,≤ 0.2
14,LCES,≤ 0.2
15,TTAQ,≤ 0.2
16,SYLM,≤ 0.2
17,THGM,≤ 0.2
18,SWWT,≤ 0.2
19,DYWC,≤ 0.2
20,QSYN,≤ 0.2
21,DHKV,≤ 0.2
22,TTPT,≤ 0.2
23,CHFC,≤ 0.2
24,GRHR,≤ 0.2

row,Variant,one-hybrid fitness for binding NBS DNA
1,PTEF,≤ 0.2
2,DASG,≤ 0.2
3,QMTE,≤ 0.2
4,YQSL,≤ 0.2
5,QKFY,≤ 0.2
6,FIYG,≤ 0.2
7,ELGC,≤ 0.2
8,FPMC,≤ 0.2
9,DLPR,≤ 0.2
10,GLAC,≤ 0.2
11,QHIA,≤ 0.2
12,LCQV,≤ 0.2
13,CRPF,≤ 0.2
14,PGTT,≤ 0.2
15,MIKS,≤ 0.2
16,GDSV,≤ 0.2
17,SYPY,≤ 0.2
18,ANTE,≤ 0.2
19,RPWG,≤ 0.2
20,QARM,0.357
21,YRMA,≤ 0.2
22,TRKS,0.437
23,NSGG,≤ 0.2
24,FFNS,≤ 0.2

row,Variant,one-hybrid fitness for binding NBS DNA
1,LAHS,≤ 0.2
2,QSEV,≤ 0.2
3,NIPH,≤ 0.2
4,KSPK,≤ 0.2
5,GMEC,≤ 0.2
6,SDMS,≤ 0.2
7,IHAC,≤ 0.2
8,WLWT,≤ 0.2
9,GMFV,≤ 0.2
10,YWES,≤ 0.2
11,RKYW,≤ 0.2
12,AMSI,≤ 0.2
13,LIWG,≤ 0.2
14,DVPV,≤ 0.2
15,QDQM,≤ 0.2
16,TWLQ,≤ 0.2
17,HRSY,≤ 0.2
18,WRAS,≤ 0.2
